Assay results: PubChem BioAssay AID1030 (National Center for Advancing Translational Sciences (NCATS), 2008)
The whole screen tested about 220,000 compounds, of which about 16,000 (7.3%) were called active. Inconclusive results, whose numbers are uncertain, are shown with a selection of clear calls. Calls come from the whole dose curve; as a rule, active = well fitted inhibition curve with a large enough effect (not every such curve was filed as active); inconclusive = small, poorly fitted or top-dose-only effect, or another doubt; inactive = no such curve, though single readings can be large or run the other way. Potencies of inconclusive entries are left out as doubtful fits. Some structures have more than one record in an assay (separate samples or runs), and their calls can disagree.

target: Aldehyde dehydrogenase 1A1 (Homo sapiens) (UniProt P00352); assay: qHTS Assay for Inhibitors of Aldehyde Dehydrogenase 1 (ALDH1A1); conditions: Purified ALDH1A1, NADH fluorescence, propionaldehyde substrate; series mostly up to 75.3 µM;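 for activity, negative = inhibition: plate controls were no enzyme wells and a reference inhibitor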
Sequence of UniProt P00352 (P00352 whole entry, looked up): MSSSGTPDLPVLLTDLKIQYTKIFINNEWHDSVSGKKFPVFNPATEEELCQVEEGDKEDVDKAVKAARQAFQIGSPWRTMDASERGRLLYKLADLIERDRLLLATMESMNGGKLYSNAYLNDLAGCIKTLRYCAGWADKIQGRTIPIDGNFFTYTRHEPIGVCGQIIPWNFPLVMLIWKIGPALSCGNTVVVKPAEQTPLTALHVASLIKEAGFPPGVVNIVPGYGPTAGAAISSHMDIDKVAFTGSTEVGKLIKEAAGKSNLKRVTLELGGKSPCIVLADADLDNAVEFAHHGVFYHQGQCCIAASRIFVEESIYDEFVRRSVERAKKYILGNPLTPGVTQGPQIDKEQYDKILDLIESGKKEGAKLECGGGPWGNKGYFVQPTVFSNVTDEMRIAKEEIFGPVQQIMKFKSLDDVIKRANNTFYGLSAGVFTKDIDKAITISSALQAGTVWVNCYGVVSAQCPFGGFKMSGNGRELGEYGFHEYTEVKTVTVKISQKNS
Potency is the fitted concentration of half-maximal effect; tags give direction and shape of the fitted curve.

Which Potency does the source give for `COc1ccc(C2C(C#N)=C(N)Oc3c2c(=O)oc2ccccc32)cc1Cn1cc([N+](=O)[O-])cn1` (centres undefined) here?
Its Potency is inconclusive [inhibitor, single point].

With `Cc1ccc(N2C(=O)/C(=C/c3ccc(CN(CCC#N)S(C)(=O)=O)o3)C(=O)NC2=S)cc1` as the compound, how does the Potency read?
Its Potency is active: 22.4 µM.

For `CCCCn1c(O)c(C(CC)=NCCc2ccccc2)c(=O)[nH]c1=O`, which Potency is on record?
The Potency was inconclusive [inhibitor, single point].

`Cc1[nH]nc2c1C1(CCC(c3ccccc3)CC1)C(C#N)=C(N)O2` (centres undefined) was tested. Which Potency did it give?
The Potency was inconclusive [inhibitor, single point].

How did the Potency turn out when `Cc1nc2sc3c(c2c(=O)n1NC(=O)CCl)CCCC3` was run?
Its Potency is inconclusive [inhibitor, single point].

With `Oc1c(Cl)cc(Cl)cc1Cl` as the compound, how does the Potency read?
Its Potency is inconclusive [inhibitor, single point].

For `CC(=O)Nc1ccccc1C(=O)OCC(=O)c1ccc2ccccc2c1`, which Potency is on record?
The Potency was inconclusive [inhibitor, partial curve].

How did the Potency turn out when `COc1cccc(-c2nc3ccc(N4CCN(C)CC4)cc3[nH]2)c1` was run?
The Potency was inconclusive [inhibitor, partial curve].

`Cc1ccc(CN(Cc2ccccc2)C(=S)NCC(=O)N2CCC3(CC2)OCCO3)o1` was tested. Which Potency did it give?
Its Potency is inconclusive [inhibitor, single point].

With `C=CCN1CCC2(C)c3cc(O)ccc3C[C@H]1[C@H]2C` as the compound, how does the Potency read?
The Potency was “inactive”.

Which Potency does the source give for `C=C(C)Cn1c(-c2cccc([N+](=O)[O-])c2)n[nH]c1=S` here?
Its Potency is inconclusive [inhibitor, partial curve].

With `C=C(C)[C@H]1CN[C@H](C(=O)O)[C@H]1CC(=O)O` as the compound, how does the Potency read?
The Potency was active: 20 µM.

How did the Potency turn out when `Cc1ccc2nc(N3CCN(C)CC3)[nH]c2c1` was run?
The Potency was “inactive”.

How did the Potency turn out when `c1cnc(N2CC[C@@]3(CCCNC3)C2)nc1` was run?
The Potency was inconclusive [inhibitor, single point].

How did the Potency turn out when `COc1ccccc1-n1c(-c2cccs2)nc2ccccc2c1=O` was run?
The Potency was “inactive”.

With `CN(C)[C@@H]1C(=O)C(C(N)=O)=C(O)[C@]2(O)C(=O)C3=C(O)c4c(O)ccc(Cl)c4[C@](C)(O)[C@H]3C[C@@H]12` as the compound, how does the Potency read?
Its Potency is “inactive”.

`CCCOC(=O)COc1cc(C)cc2oc(=O)c3c(c12)CCC3` was tested. Which Potency did it give?
Its Potency is inconclusive [inhibitor, full curve].

With `Cc1ccc(CN2CCN(Cc3ccccc3F)CC2)cc1` as the compound, how does the Potency read?
The Potency was inconclusive [inhibitor, partial curve].

How did the Potency turn out when `O=C1/C(=C/c2ccncc2)N2CCC1CC2` was run?
Its Potency is inconclusive [inhibitor, single point].

For `CSc1ccc(C(=O)C(C)(C)N2CCOCC2)cc1`, which Potency is on record?
The Potency was active: 8.91 µM.

With `c1ccc(NNc2ccccc2)cc1` as the compound, how does the Potency read?
Its Potency is active: 10 µM.

With `CC1(C)CC(=O)C(C=NCCN2CCN(C(=O)Cc3ccc(Cl)cc3)CC2)=C(O)C1` as the compound, how does the Potency read?
Its Potency is inconclusive [inhibitor, partial curve].

For `CC(C)c1ccc(N2C(=O)NC(=O)/C(=C/c3cnc(-c4ccccc4)nc3)C2=O)cc1`, which Potency is on record?
Its Potency is active: 18.9 µM.

For `c1ccc2cc3c(cc2c1)-c1cccc2cccc-3c12`, which Potency is on record?
Its Potency is inconclusive [inhibitor, partial curve].

With `NC(=O)CSP(=O)(c1ccccc1)c1ccccc1` as the compound, how does the Potency read?
Its Potency is “inactive”.

With `CCC(=Nc1cc(OC)ccc1OC)c1c(O)[nH]c(=O)[nH]c1=O` as the compound, how does the Potency read?
The Potency was inconclusive [inhibitor, single point].

Which Potency does the source give for `Fc1ccccc1CCNCc1cccc2ccccc12` here?
The Potency was “inactive”.

With `NNC(=O)c1ccc(Cl)cc1` as the compound, how does the Potency read?
Its Potency is inconclusive [inhibitor, full curve].

`CCC(C)n1c(O)c(/C=N/NC(=O)c2ccncc2)c(=O)[nH]c1=S` (centres undefined) was tested. Which Potency did it give?
The Potency was “inactive”.

How did the Potency turn out when `COc1ccc(CN2C(=O)NC(=O)/C(=C\c3ccc(OC)c(OC)c3OC)C2=O)cc1` was run?
Its Potency is inconclusive [inhibitor, single point].

`COc1cc2c3cc1Oc1cc(ccc1O)C[C@@H]1c4c(cc(OC)c(O)c4Oc4ccc(cc4)C[C@H]3N(C)CC2)CCN1C` was tested. Which Potency did it give?
The Potency was “inactive”.

With `O=C(c1cccc(C(F)(F)F)c1)C1CCCN(Cc2ncc[nH]2)C1` (centres undefined) as the compound, how does the Potency read?
The Potency was inconclusive [inhibitor, single point].

Which Potency does the source give for `CCCCn1c(NS(=O)(=O)c2ccc(C)cc2)c(C(=O)OCC)c2nc3ccccc3nc21` here?
Its Potency is inconclusive [inhibitor, partial curve].

With `CCC(=NCc1ccco1)c1c(O)[nH]c(=O)[nH]c1=O` as the compound, how does the Potency read?
The Potency was “inactive”.

`N#Cc1cccc(NC(=O)N2CCCC3(CCN(C(=O)Oc4ccccc4)CC3)C2)c1` was tested. Which Potency did it give?
The Potency was “inactive”.

With `COc1ccc(-c2cc(=Nc3ccccc3)c3cc(C)ccc3o2)cc1` as the compound, how does the Potency read?
Its Potency is inconclusive [inhibitor, partial curve].

How did the activity, negative = inhibition turn out when `CCCOC(=O)[C@@H]1[C@@H](C(=O)O)[C@H]2CC[C@@H]1O2` was run?
The activity, negative = inhibition was inactive: -3.49% [at 13.5 µM].

For `c1ccc(CN2CCC3(CCNCC3)CC2)cc1`, which Potency is on record?
Its Potency is inconclusive [inhibitor, single point].

How did the Potency turn out when `S=c1[nH]nc(C2CC2)n1Cc1ccco1` was run?
Its Potency is inconclusive [inhibitor, single point].

How did the Potency turn out when `CCC(=Nc1ccc(OC)cc1OC)c1c(O)[nH]c(=O)[nH]c1=O` was run?
Its Potency is “inactive”.

For `Nc1ncc([N+](=O)[O-])s1`, which Potency is on record?
Its Potency is active: 25.1 µM.

`COc1cc(/C=C2/C(=O)NC(=O)N(c3ccccc3)C2=O)ccc1O` was tested. Which Potency did it give?
The Potency was inconclusive [inhibitor, single point].

For `Cc1ncoc1C(=O)NCCC(c1ccccc1)c1ccccc1`, which Potency is on record?
The Potency was inconclusive [inhibitor, single point].

Which Potency does the source give for `N#Cc1c(/N=C/c2c(O)n(Cc3ccco3)c(=O)[nH]c2=O)sc2c1CCCC2` here?
Its Potency is active: 28.2 µM.

With `O=C(O)c1cccc2c1NC(c1cccc([N+](=O)[O-])c1)C1CC(Sc3ccccc3[N+](=O)[O-])C(Cl)C21` (centres undefined) as the compound, how does the Potency read?
The Potency was active: 3.55 µM.

`Clc1ccc(N2CCN(Cc3ccccc3Cl)CC2)cc1` was tested. Which Potency did it give?
Its Potency is inconclusive [inhibitor, single point].

With `Fc1c(F)c(F)c(N2CCNCC2)c(F)c1F` as the compound, how does the Potency read?
The Potency was inconclusive [inhibitor, single point].

Which Potency does the source give for `CN(C)/C=C1/C(=O)NC(=O)N(CCNc2ncc(C(F)(F)F)cc2Cl)C1=O` here?
Its Potency is inconclusive [inhibitor, partial curve].

For `CC(C)CC12CN3CCN(CC(C3)/C1=N/O)C2`, which Potency is on record?
Its Potency is inconclusive [inhibitor, single point].

Which Potency does the source give for `Brc1ccc2[nH]cc(/C=N/N3CCCCC3)c2c1` here?
The Potency was “inactive”.

Which Potency does the source give for `CCc1ccc2c(CN3CC=C(c4ccccc4)CC3)cc(=O)oc2c1` here?
The Potency was “inactive”.

How did the Potency turn out when `CC(=O)OC1C(=O)[C@]2(C)C(O)CC3OC[C@]3(OC(C)=O)C2[C@@H](OC(=O)c2ccccc2)[C@]2(O)CC(O)C(C)=C1C2(C)C` (some centres undefined) was run?
Its Potency is inconclusive [inhibitor, single point].

How did the Potency turn out when `COc1ccc([N+](=O)[O-])cc1CSc1ccccn1` was run?
The Potency was inconclusive [inhibitor, single point].

With `O=C(NCc1ccccn1)c1ccccc1Cl` as the compound, how does the Potency read?
Its Potency is inconclusive [inhibitor, single point].

For `COc1ccc(CNc2oc(-c3cccc4ccccc34)nc2P(=O)(OC)OC)cc1`, which Potency is on record?
Its Potency is inconclusive [inhibitor, partial curve].

`CCc1ccc(/C=C(/C#N)C(N)=S)cc1` was tested. Which Potency did it give?
Its Potency is active: 31.6 µM.

With `C=CC(=C)C` as the compound, how does the Potency read?
Its Potency is “inactive”.

With `C[C@@H]1CC2(CCCC[N+]2(C)C)C[C@H]1C` as the compound, how does the Potency read?
The Potency was “inactive”.

How did the Potency turn out when `COc1ccc(OC)c(NP(=O)(Oc2ccc(Cl)cc2)Oc2ccc(Cl)cc2)c1` was run?
Its Potency is inconclusive [inhibitor, single point].

With `CC(C)CCC1(CCN)C(=O)NC(=O)NC1=O` as the compound, how does the activity, negative = inhibition read?
Its activity, negative = inhibition is inactive: 0.154% [at 13.5 µM].

Which Potency does the source give for `CC1(C)C[C@H]2C=C(C=O)[C@]3(C=O)C[C@]3(C)[C@H]2C1` here?
Its Potency is inconclusive [inhibitor, single point].

`O=c1[nH]c(=O)n(C2CCCCC2)c(O)c1C1NCCc2ccccc21` (centres undefined) was tested. Which Potency did it give?
The Potency was inconclusive [inhibitor, partial curve].

How did the Potency turn out when `O=C(O)c1ccccc1C(=O)O` was run?
Its Potency is active: 28.2 µM.

For `CCN1C(=O)C(=C2C=C(C)N(Cc3ccco3)C(C)=C2)C(=O)N(CC)C1=S`, which Potency is on record?
The Potency was inconclusive [inhibitor, single point].

`CC(=NCCCN1CCOCC1)c1c(O)n(-c2ccccc2C)c(=O)[nH]c1=O` was tested. Which Potency did it give?
Its Potency is active: 14.1 µM.

For `C[C@@]12CC[C@H]3[C@@H](CC[C@]4(O)C[C@H](O)CC[C@@]34C=O)[C@]1(O)CC[C@@H]2C1=CC(=O)OC1`, which Potency is on record?
Its Potency is “inactive”.

How did the Potency turn out when `Nc1nc(N)c2nc(CNc3ccc(C(=O)NC(CCC(=O)O)C(=O)O)cc3)cnc2n1` (centres undefined) was run?
Its Potency is inconclusive [inhibitor, partial curve].

Which Potency does the source give for `CC(C)(C)n1cccc1/C=C1\C(=O)NC(=O)N(c2ccccc2)C1=O` here?
The Potency was active: 1.41 µM.

How did the Potency turn out when `COc1cc(NC(=S)N2CCOCC2)c(OC)cc1Cl` was run?
Its Potency is inconclusive [inhibitor, single point].

For `CC(C)c1nccn1Cc1ccc(Cl)cc1Cl`, which activity, negative = inhibition is on record?
Its activity, negative = inhibition is inactive: 13.5% [at 13.5 µM].

`C=CCn1c(O)c(C(=O)CCCCCC)c(=O)[nH]c1=O` was tested. Which Potency did it give?
The Potency was inconclusive [inhibitor, single point].

With `CC1=[N+]([O-])C2(N)CCc3nonc3C2(O)C1` (centres undefined) as the compound, how does the Potency read?
The Potency was active: 7.08 µM.

With `CC1(C)C(=O)C=C[C@@]2(C)C1=C(O)C(=O)[C@@]1(C)C2CC[C@@]2(C)C(c3ccoc3)C[C@H]3O[C@@]321` (some centres undefined) as the compound, how does the Potency read?
The Potency was “inactive”.

With `CC(N)[C@H](O)c1ccc(O)c(O)c1` (some centres undefined) as the compound, how does the Potency read?
The Potency was “inactive”.
